Measured values reported in PubChem BioAssay AID2546 (National Center for Advancing Translational Sciences (NCATS), 2010).
Screen size: about 310,000 compounds; about 11,000 (3.5%) were called active. Inconclusive results, whose numbers are uncertain, are shown with a selection of clear calls. Calls follow the shape of the dose curve; as a rule, active = well fitted inhibition curve with a large enough effect; inconclusive = small, poorly fitted or top-dose-only effect, or effect the other way; inactive = flat fitted curve, though single readings scatter. Potencies of inconclusive entries are left out as doubtful fits.

Assay: VP16 counterscreen qHTS for inhibitors of ROR gamma transcriptional activity;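 also: Gal4-VP16 expression switched on by copper sulfate through the metallothionein promoter; nearly all actives have a fitted effect of over 50% in size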
Conditions: Drosophila S2 Gal4-VP16 UAS-luciferase, luminescence, 20 h; series mostly up to 53.6 µM
Potency is read from the fitted curve at half-maximal effect; tags tell the direction and shape of the fitted curve.

| SMILES | Potency |
| --- | --- |
| CC(OC(=O)c1ccc2c(=O)n3c(nc2c1)CCC3)C(=O)NC1CCCCC1C (stereo unspecified) | inactive |
| Clc1ccc(CSCCc2ccncc2)cc1 | inconclusive [inhibitor, single point] |
| COCCn1c(SCC(=O)Nc2ncc(C)s2)nc2sc3c(c2c1=O)CCC3 | active: 10 µM |
| CCCSc1ncc(Cl)c(C(=O)Nc2ccc(S(=O)(=O)Nc3ncccn3)cc2)n1 | inconclusive [inhibitor, single point] |
| COc1ccc(NC(=S)NCc2ccc3c(c2)cc(C)n3C)cc1 | active: 11.2 µM |
| COc1cc(O)c(C(=O)/C=C/c2ccc(OC)c(O)c2)c(OC)c1 | inconclusive [inhibitor, single point] |
| CC(/C=C/c1ccccc1)=N/NC(=O)c1cccc(Br)c1 | active: 3.55 µM |
| CC(=O)Nc1ccc(S(=O)(=O)c2cc(O)ccc2O)cc1 | inactive |
| Cc1cccc(/C=N/Nc2ccc3ccccc3n2)c1 | active: 6.31 µM |
| O=C(CN1C(=O)S/C(=C/c2ccncc2)C1=O)Nc1ccccc1 | inconclusive [inhibitor, single point] |
| COc1ccc(NC(=O)CC2C(=O)N(c3ccc(Cl)cc3)C(=S)N2CCc2ccccn2)cc1 (stereo unspecified) | inconclusive [inhibitor, single point] |
| Cc1cccn2cc(-c3ccc(F)cc3)nc12 | inconclusive [inhibitor, single point] |
| COCCN(CCOC)c1nc(C)nc2c1nc(-c1ccccc1)n2CCN1CCCC1 | inactive |
| COc1ccc(CCNC2CC(=O)N(CCc3ccccc3)C2=O)cc1 (stereo unspecified) | inactive |
| C=CCn1c(SCC(=O)Nc2cccnc2Cl)nnc1-c1ccccc1F | inconclusive [inhibitor, single point] |
| C=C1CCN([C@@H](C)C(=O)OCc2cccc(C)c2)S(=O)(=O)c2ccccc21 | inconclusive [inhibitor, single point] |
| O=C(Nc1ccc(Br)c2ccccc12)c1ccc2ccccc2c1O | inconclusive [inhibitor, single point] |
| CC(=O)Nc1nc2ccccc2n1CCN1CCOCC1 | inactive |
| COc1ccccc1NS(=O)(=O)c1ccc2nc(CCl)[nH]c2c1 | inconclusive [inhibitor, single point] |
| CC(C)C(C)NC(=O)COC(=O)c1cc(S(=O)(=O)N(C)C)ccc1N1CCCC1 (stereo unspecified) | inactive |
| Cc1ccc(C2Oc3ccccc3C3=C2C(c2cccs2)n2ncnc2N3)cc1 (stereo unspecified) | inconclusive [inhibitor, single point] |
| C=CCNC(=S)NNC(=O)CSc1nc2ccccc2s1 | inconclusive [inhibitor, single point] |
| Cc1ccc(C(=O)NNC2=NCCC2)cc1 | active: 17.8 µM |
| Nc1cc(S(=O)(=O)Nc2ccccc2Cl)ccc1N1CCCC1 | inconclusive [inhibitor, single point] |
| COc1cccc(/C=C2\CCc3ccccc3C2=O)c1 | active: 11.2 µM |
| CCCc1nc2scc(-c3ccc(C)cc3)c2c(=O)n1N | inconclusive [inhibitor, single point] |

| SMILES | Potency |
| --- | --- |
| CCOC(=O)c1c(C)oc2c1c(C=NCc1ccccn1)c(O)c1ccccc12 | inconclusive [inhibitor, single point] |
| CCN(CC)c1ccc(/C=N/NC(=O)c2cccc(S(=O)(=O)Nc3ccccc3OC)c2)c(O)c1 | active: 4.47 µM |
| COc1cccc(CNC(=O)Cc2ccc(NC(=O)C3=C(C)OCCS3)cc2)c1 | inconclusive [inhibitor, single point] |
| CCN1CCN(C(c2cccs2)C(C)NC(=O)c2cccc(OC)c2)CC1 (stereo unspecified) | inconclusive [inhibitor, single point] |
| O=C(CCN1C(=O)S/C(=C\c2cccs2)C1=O)NC1=NCCS1 | active: 17.8 µM |
| COc1cc(/C=C(/C(=O)c2cccs2)c2nc3ccccc3[nH]2)cc(OC)c1O | inconclusive [inhibitor, single point] |
| CCOC(=O)c1cc2c(=O)n3cccc(C)c3nc2n(CCCOC)c1=NC(=O)c1cccnc1 | inactive |
| Cc1ccc(-c2nnc(Nc3ccc4c(c3)OCO4)c3ccccc23)cc1S(=O)(=O)NC(C)C | inactive |
| O=C(CSc1nc2ccccc2o1)Nc1nc(-c2ccccc2)c(-c2ccccc2)s1 | inconclusive [inhibitor, single point] |
| O=C(N/N=C/c1cccs1)c1cccc(NC(=O)c2ccc(Cl)cc2)c1 | active: 12.6 µM |
| COc1cc(C(=O)ON=C2C(C)=CC(=O)C=C2C)cc(OC)c1OC | inactive |
| CCOC(=O)C1=C(C)N(C)C(=S)NC1c1c(OCC)ccc2ccccc12 (stereo unspecified) | active: 17.8 µM |
| Cc1ccc(OCC(=O)Nc2ccncc2)cc1 | inconclusive [inhibitor, single point] |
| CC(C)Cn1c(CN2CCN(c3ccccc3F)CC2)nc2c1c(=O)[nH]c(=O)n2C | inactive |
| COc1cc2c(cc1OC)C(COc1cc(C)cc(C)c1)N(C(C)=O)CC2 (stereo unspecified) | inactive |
| COC(=O)c1ccc(/C=C/C(=O)c2cccc(OC)c2)cc1 | inconclusive [inhibitor, single point] |
| Cc1ccc(/C=N\Nc2cn[nH]c(=O)c2Cl)cc1 | inconclusive [inhibitor, single point] |
| O=[N+]([O-])c1cc2oc3c(c2c(C=NCc2ccncc2)c1O)CCCC3 | inconclusive [inhibitor, single point] |
| COC(=O)c1ccc(NC(=S)NC(=O)c2c(-c3ccccc3)noc2C)cc1 | inconclusive [inhibitor, single point] |
| CC(C)n1c(SCC(=O)Nc2ccccc2N2CCOCC2)nc2c1c(=O)n(C)c(=O)n2C | inactive |
| Cn1c(OCc2cccnc2)nc2c1c(=O)n(Cc1ccccc1)c(=O)n2C | active: 6.31 µM |
| CCN(c1ccccc1)S(=O)(=O)c1ccc(Cl)c(NC(=O)CN(C)C2CCN(C)CC2)c1 | inactive |
| Cc1ccccc1NC(=O)NCCCN1CCCC1 | inactive |
| Cc1ccc(NC(=O)Nc2ccc3c(c2)N(C)C(=O)CS3)nc1 | inconclusive [inhibitor, single point] |
| CCc1ccccc1NC(=S)N1CCCCCC1 | inconclusive [inhibitor, single point] |
| Cc1ccc(C(=O)NNC(=O)C2CCN(S(=O)(=O)c3ccc(Cl)cc3)CC2)cc1 | inconclusive [inhibitor, single point] |

| SMILES | Potency |
| --- | --- |
| COc1cccc(NC(=O)CN(C)C(C)C(=O)Nc2ccc(C(C)=O)cc2)c1 (stereo unspecified) | inactive |
| C/C(=N\NC(=O)c1cc(-c2ccc(C)s2)nc2ccccc12)c1cccnc1 | inconclusive [inhibitor, single point] |
| CCN(CC(=O)NCc1ccc2c(c1)OCO2)S(=O)(=O)c1ccc(F)cc1 | inactive |
| Cc1ccc(C2=NN(C3=NN=C(N)Cc4ncnn43)C(O)(C(F)(F)F)C2)cc1 (stereo unspecified) | inconclusive [inhibitor, single point] |
| S=C(NC1CCCCC1)N(CCc1ccccc1)CCc1ccccc1 | active: 10 µM |
| CC(C)(C)C1CCC(C(=O)NCCc2ccc(S(N)(=O)=O)cc2)CC1 (stereo unspecified) | inconclusive [activator, single point] |
| Cc1ccc(C)n1-n1cnc2sc(-c3ccccc3)cc2c1=O | inconclusive [inhibitor, single point] |
| O=C(N/N=C1\CC2CC=CC12)c1ccc(COc2ccccc2)cc1 (stereo unspecified) | active: 5.01 µM |
| CCOc1ccc(-c2[nH]ncc2-c2ccc(OC)c(OC)c2)c(O)c1 | inconclusive [inhibitor, single point] |
| Cc1ccsc1C(=O)Nc1nccs1 | inconclusive [inhibitor, single point] |
| O=c1c2ccccc2nc(/C=C/c2c[nH]c3ccccc23)n1CCO | inactive |
| NC(=S)N=Nc1c(O)n(Cc2ccc(Br)cc2)c2ccccc12 | active: 0.891 µM |
| CC1=C(c2ccc(NN=C(C#N)C#N)cc2)NNC(=O)C1 | inconclusive [inhibitor, single point] |
| Cc1oc2c(c1C(=O)N1CCC(C)CC1)C(=O)c1ccccc1C2=O | inconclusive [inhibitor, single point] |
| CCOC(=O)c1nnc(-c2ccccc2)nc1Oc1ccc(Cl)cc1 | active: 10 µM |
| Cc1ccc(-c2nc(-c3ccncc3)no2)c(C)c1 | inconclusive [activator, single point] |
| CC1(C)CC(CCNS(=O)(=O)c2ccccc2)(c2ccccc2)CCO1 (stereo unspecified) | inconclusive [activator, single point] |
| CCNC(=O)COC(=O)c1csc2c1CCCC2 | inconclusive [inhibitor, partial curve] |
| Cc1ccc(C(=O)Nc2ccc3c(c2)CCC3)o1 | active: 12.6 µM |
| CC(Nc1ccc(F)cc1F)C(=O)NC(=O)NC1CCCCC1 (stereo unspecified) | inactive |
| CC1=NOC(=O)/C1=C/c1ccc(O)cc1 | inconclusive [inhibitor, single point] |
| COc1cccc2sc(Nc3nc(-c4cc5ccccc5oc4=O)cs3)nc12 | inconclusive [inhibitor, partial curve] |
| O=C(NC(=S)Nc1ccccc1Br)c1cccnc1 | active: 17.8 µM |
| Cc1onc(-c2c(F)cccc2Cl)c1C(=O)OCC(=O)NC(N)=O | inconclusive [inhibitor, full curve] |
